At least one read-out could not be matched to a standard name with certainty.
What follows are compounds tested on skin roughness (assay: Score of skin roughness, visual ranking after two-week coating on cheeks). Conditions: Invention Product 1: vaseline and compound 3:1 by weight; two weeks; average; 0 = no roughness, 4 = severe.
Assay type: in vivo, women
Excerpt: Compounds Ia1 -Ia18 prepared respectively in Referential Examples 1, 2 and 3 and following the procedures of these referential examples, compounds Ib1 -Ib5 prepared respectively in Referential Example 4 and following the procedure of the referential example, compounds Id1 -Id5 prepared respectively in Referential Example 5 and following the procedure of the referential example, compounds Ie1 -Ie4 prepared respectively in Referential Examples 6-9, and conventional compounds Ic1 -Ic13, Ie5 -Ie14 and II1 -II12 were used separately. Mixtures (Invention Products 1), each of which had been formulated by mixing vaseline and the compound (I or II) at a weight ratio of 3:1, and vaseline (Comparative Product 1) were evaluated in skin conductance and skin roughness by the following methods.
Chosen as volunteers in winter were 10 women of 20-50 years of old who had skin roughness on their both cheeks. Different external skin care preparations were coated separately on the left and right cheeks of each volunteer for two weeks. On the following day of the completion of the two-week coating test, tests were conducted with respect to the following properties.
Skin roughness was observed visually and ranked in accordance with the following standard. Each score was indicated by an average value.
Score Ranking of skin roughness
0 No skin roughness was observed.
1 Slight skin roughness was observed.
2 Skin roughness was observed.
3 Rather severe skin roughness was observed.
4 Severe skin roughness was observed.
Using separately the compounds used in Example 1, external skin care preparations (emulsified cosmetic preparations) of their corresponding compositions shown below in Table 2 were formulated. Their effects for the improvement of skin roughness were evaluated in the same manner as in Example 1.

SMILES	Score of skin roughness
CCCCCCCCCCCCCCCCOCC(O)CN(CCO)CC(O)COCCCCCCCCCCCCCCCC (centres unmarked) [Compound II1]	1.0
CCCCCCCCCCOCC(O)CN(CCO)CC(O)COCCCCCCCCCC (centres unmarked) [Compound II2]	1.6
CCCCCCCCCCCCCCCCCCOCC(O)CN(CCO)CC(O)COCCCCCCCCCC (centres unmarked) [Compound II3]	1.4
CCCCCCCCCCCCCCCCCCOCC(O)CN(CCO)CC(O)COCCCCCCCCCCCCCCCCCC (centres unmarked) [Compound II4]	0.9
CCCCCCCCCCOCC(O)CN(CC(=O)O)CC(O)COCCCCCCCCCC (centres unmarked) [Compound II6]	1.5
CCCCCCCCCCCCCCCCCCOCC(O)CN(CC(=O)O)CC(O)COCCCCCCCCCC (centres unmarked) [Compound II7]	1.3
CCCCCCCCCCCCCCCCCCOCC(O)CN(CC(=O)O)CC(O)COCCCCCCCCCCCCCCCCCC (centres unmarked) [Compound II8]	0.9
CCCCCCCCCCCCCCCCOCC(O)CN(CC(=O)O)CC(O)COCCCCCCCCCCCCCCCC (centres unmarked) [Compound II9]	1.1
CCCCCCCCCCOCC(O)CN(CC(O)COCCCCCCCCCC)C(C)=O (centres unmarked) [Compound II10]	1.7
CCCCCCCCCCCCCCCCCCOCC(O)CN(CC(O)COCCCCCCCCCC)C(C)=O (centres unmarked) [Compound II11]	1.5
CCCCCCCCCCCCCCCCCCOCC(O)CN(CC(O)COCCCCCCCCCCCCCCCCCC)C(C)=O (centres unmarked) [Compound II12]	1.0
CCCCCCCCCCCCCCCCOCC(O)CN(CCCO)C(=O)CCCCCCCCCCCCCCC (centres unmarked) [Compound Ia1, N-(3-hexadecyloxy-2-hydroxypropyl)-N-3-hydroxypropylhexadecanamide]	1.1
CCCCCCCCCCCCCCCCOCC(O)CN(CCCCCCO)C(=O)CCCCCCCCCCCCCCC (centres unmarked) [Compound Ia2, N-(3-hexadecylocy-2-hydroxypropyl)-N-6-hydroxyhexylhexadecanamide]	1.3
CCCCCCCCCCOCC(O)CN(CCCO)C(=O)CCCCCCCCC (centres unmarked) [Compound Ia3]	1.5
CCCCCCCCCCCCCCCCCC(=O)N(CCCO)CC(O)COCCCCCCCCCC (centres unmarked) [Compound Ia4]	1.4
CCCCCCCCCCCCCCCCCCOCC(O)CN(CCCO)C(=O)CCCCCCCCC (centres unmarked) [Compound Ia5]	1.2
CCCCCCCCCCCCCCCCCCOCC(O)CN(CCCO)C(=O)CCCCCCCCCCCCCCCCC (centres unmarked) [Compound Ia6]	0.9
CCCCCCCCCCCCCCCCCC(=O)N(CCCCCCO)CC(O)COCCCCCCCCCC (centres unmarked) [Compound Ia7]	1.5
CCCCCCCCCCCCCCCCCCOCC(O)CN(CCCCCCO)C(=O)CCCCCCCCCC (centres unmarked) [Compound Ia8]	1.4
CCCCCCCCCCCCCCCCCCOCC(O)CN(CCCCCCO)C(=O)CCCCCCCCCCCCCCCCC (centres unmarked) [Compound Ia9]	1.1

SMILES	Score of skin roughness
CCCCCCCCCCCCCCCCOCC(O)CN(CC(O)CO)C(=O)CCCCCCCCCCCCCCC (centres unmarked) [Compound Ia10, N-(3-hexadecyloxy-2-hydroxypropyl)-N-2,3-dihydroxypropylhexadecanamide]	0.9
CCCCCCCCCCCCCCCCCC(=O)N(CC(O)CO)CC(O)COCCCCCCCCCC (centres unmarked) [Compound Ia11]	1.0
CCCCCCCCCCCCCCCCCCOCC(O)CN(CC(O)CO)C(=O)CCCCCCCCC (centres unmarked) [Compound Ia12]	1.1
CCCCCCCCCCCCCCCCCCOCC(O)CN(CC(C)O)C(=O)CCCCCCCCCCCCCCCCC (centres unmarked) [Compound Ia13]	1.3
CCCCCCCCCCCCCCCCCCOCC(O)CN(C(=O)CCCCCCCCCCCCCCCCC)C(C)(CO)CO (centres unmarked) [Compound Ia14]	0.8
CCCCCCCCCCCCCCCCCCOCC(O)CN(C(=O)CCCCCCCCCCCCCCCCC)C(C)(C)CO (centres unmarked) [Compound Ia15]	1.3
CCCCCCCCCCCCCCCCCCOCC(O)CN(C(=O)CCCCCCCCCCCCCCCCC)C(C)CO (centres unmarked) [Compound Ia16]	1.2
CCCCCCCCCCCCCCOCC(O)CN(C(=O)CCCCCCCCC)C(CO)(CO)CO (centres unmarked) [Compound Ia17]	1.0
CCCCCCCCCCCCCCCCOCC(O)CN(CCOCCO)C(=O)CCCCCCCCCCCCCCC (centres unmarked) [Compound Ib1, N-(3-hexadecyloxy-2-hydroxypropyl)-N-2-hydroxyethoxyethylhexadecanamide]	1.0
CCCCCCCCCCOCC(O)CN(CCOCCO)C(=O)CCCCCCCCC (centres unmarked) [Compound Ib2]	1.6
CCCCCCCCCCCCCCCCCCOCC(O)CN(CCOCCO)C(=O)CCCCCCCCC (centres unmarked) [Compound Ib3]	1.5
CCCCCCCCCCCCCCCCCC(=O)N(CCOCCO)CC(O)COCCCCCCCCCC (centres unmarked) [Compound Ib4]	1.2
CCCCCCCCCCCCCCCCCCOCC(O)CN(CCOCCO)C(=O)CCCCCCCCCCCCCCCCC (centres unmarked) [Compound Ib5]	0.9
CCCCCCCCCCCCCCCCCC(=O)N(CC(=O)O)CC(O)COCCCCCCCCCCCCCC (centres unmarked) [Compound Ic1]	1.5
CCCCCCCCCCCCCCCCCC(=O)N(CC(=O)O)CC(O)COCCCCCCCCCCCCCC (centres unmarked) [Compound Ic2]	1.4
CCCCCCCCCCCCCCCCCC(=O)N(CC(=O)O)CC(O)CCCCCCCCCCCCCCCC (centres unmarked) [Compound Ic3]	1.7
CCCCCCCCCCCCCCCCCC(=O)N(CC(=O)O)CC(O)CCCCCCCCCCCCCCCC (centres unmarked) [Compound Ic4]	1.4
CCCCCCCCCCCCCCCCOCC(O)CN(C(=O)CCCCCCCCCCCCCCC)C(C)C(=O)O (centres unmarked) [Compound Ic5]	1.4
CCCCCCCCCCCCCCCCOCC(O)CN(C(=O)CCCCCCCCCCCCCCC)C(Cc1ccccc1)C(=O)O (centres unmarked) [Compound Ic6]	1.6
CCCCCCCCCCCCCCCCOCC(O)CN(C(=O)CCCCCCCCCCCCCCC)C(C(=O)O)C(C)C (centres unmarked) [Compound Ic7]	1.4

SMILES	Score of skin roughness
CCCCCCCCCCCCCCCCOCC(O)CN(C(=O)CCCCCCCCCCCCCCC)C(CO)C(=O)O (centres unmarked) [Compound Ic8]	1.2
CCCCCCCCCCCCCCCCOCC(O)CN(C(=O)CCCCCCCCCCCCCCC)C(CCSC)C(=O)O (centres unmarked) [Compound Ic9]	1.3
CCCCCCCCCCCCCCCCOCC(O)CN(C(=O)CCCCCCCCCCCCCCC)C(CC(=O)O)C(=O)O (centres unmarked) [Compound Ic10]	1.4
CCCCCCCCCCCCCCCCOCC(O)CN(C(=O)CCCCCCCCCCCCCCC)C(CCC(=O)O)C(=O)O (centres unmarked) [Compound Ic11]	1.5
CCCCCCCCCCCCCCCCOCC(O)CN(C(=O)CCCCCCCCCCCCCCC)C(Cc1c[nH]cn1)C(=O)O (centres unmarked) [Compound Ic12]	1.8
CCCCCCCCCCCCCCCCOCC(O)CN(C(=O)CCCCCCCCCCCCCCC)C(Cc1c[nH]c2ccccc12)C(=O)O (centres unmarked) [Compound Ic13]	1.9
CCCCCCCCCCCCCCCCC(O)CN(CCO)C(=O)CCCCCCCCC (centres unmarked) [Compound Id2]	1.1
CCCCCCCCCCC(O)CN(CCO)C(=O)CCCCCCCCC (centres unmarked) [Compound Id3]	1.3
CCCCCCCCCCCCCCCCCC(=O)N(CCO)CC(O)CCCCCCCCCC (centres unmarked) [Compound Id4]	1.1
CCCCCCCC/C=C\CCCCCCCC(=O)N(CCO)CC(O)CCCCCCCCCCCCCCCC (centres unmarked) [Compound Id5]	0.8
CCCCCCCCCCCCCCCCOCC(O)CN(CCOC1O[C@H](CO)[C@@H](O)[C@H](O)[C@H]1O)C(=O)CCCCCCCCCCCCCCC (some centres unmarked) [Compound Ie1, N-(3-hexadecyloxy-2-hydroxypropyl)-N-(2-O-glucopyranosyl)ethylhexadecanamide]	1.0
CCCCCCCCCCCCCCCCOCC(O)CN(CCO[C@@H]1O[C@H](CO)[C@@H](O[C@@H]2O[C@H](CO)[C@H](O)[C@H](O)[C@H]2O)[C@H](O)[C@H]1O)C(=O)CCCCCCCCCCCCCCC (stereo partly drawn) [Compound Ie2, N-(3-hexadecyloxy-2-hydroxypropyl)-N-[2-O-(4-β-D-galactopyranosyl-β-D-glucopyranosyl)ethyl]hexadecanamide]	0.8
CCCCCCCCCCCCCCCCOCC(O)CN(CCO[C@@H]1O[C@H](CO)[C@@H](O)[C@H](O)[C@H]1NC(C)=O)C(=O)CCCCCCCCCCCCCCC (some centres unmarked) [Compound Ie3]	0.7
CCCCCCCCCCCCCCCCOCC(O)CN(CCOP(=O)(O)OCCNC)C(=O)CCCCCCCCCCCCCCC (centres unmarked) [Compound Ie6]	1.2
CCCCCCCCCCCCCCCCOCC(O)CN(CCOP(=O)(O)OCCNCc1ccccc1)C(=O)CCCCCCCCCCCCCCC (centres unmarked) [Compound Ie8]	1.4
CCCCCCCCCCCCCCCCCC(=O)N(CCOP(=O)([O-])OCC[N+](CC)(CC)CC)CC(O)COCCCCCCCCCCCCCC (centres unmarked) [Compound Ie9]	1.1
CCCCCCCCCCOCC(O)CN(CCOP(=O)(O)OCCNCCc1ccccc1)C(=O)CCCCCCCCC (centres unmarked) [Compound Ie10]	1.8
CCCCCCCC/C=C\CCCCCCCCOCC(O)CN(CCOP(=O)([O-])OCC[N+](C)(C)C)C(=O)CCCCCCCCCCCCCCCCC (centres unmarked) [Compound Ie12]	1.6
CCCCCCCCCCCCCCCCOCC(CN(CCO)C(=O)CCCCCCCCCCCCCCC)OP(=O)([O-])OCC[N+](C)(C)C (centres unmarked) [Compound Ie13]	1.7
